The values below come from patent US20220389082A1 (CSL BEHRING LENGNAU, published 2022).

For experiment [1], the target named is T1, rVIII-SingleChain (single chain Factor VIII molecule, construct dBN(64-53) of WO 2004/067566) (Homo sapiens (Human), UniProt P00451 20-2351).
T1 construct: also called FVIII
T1 sequence: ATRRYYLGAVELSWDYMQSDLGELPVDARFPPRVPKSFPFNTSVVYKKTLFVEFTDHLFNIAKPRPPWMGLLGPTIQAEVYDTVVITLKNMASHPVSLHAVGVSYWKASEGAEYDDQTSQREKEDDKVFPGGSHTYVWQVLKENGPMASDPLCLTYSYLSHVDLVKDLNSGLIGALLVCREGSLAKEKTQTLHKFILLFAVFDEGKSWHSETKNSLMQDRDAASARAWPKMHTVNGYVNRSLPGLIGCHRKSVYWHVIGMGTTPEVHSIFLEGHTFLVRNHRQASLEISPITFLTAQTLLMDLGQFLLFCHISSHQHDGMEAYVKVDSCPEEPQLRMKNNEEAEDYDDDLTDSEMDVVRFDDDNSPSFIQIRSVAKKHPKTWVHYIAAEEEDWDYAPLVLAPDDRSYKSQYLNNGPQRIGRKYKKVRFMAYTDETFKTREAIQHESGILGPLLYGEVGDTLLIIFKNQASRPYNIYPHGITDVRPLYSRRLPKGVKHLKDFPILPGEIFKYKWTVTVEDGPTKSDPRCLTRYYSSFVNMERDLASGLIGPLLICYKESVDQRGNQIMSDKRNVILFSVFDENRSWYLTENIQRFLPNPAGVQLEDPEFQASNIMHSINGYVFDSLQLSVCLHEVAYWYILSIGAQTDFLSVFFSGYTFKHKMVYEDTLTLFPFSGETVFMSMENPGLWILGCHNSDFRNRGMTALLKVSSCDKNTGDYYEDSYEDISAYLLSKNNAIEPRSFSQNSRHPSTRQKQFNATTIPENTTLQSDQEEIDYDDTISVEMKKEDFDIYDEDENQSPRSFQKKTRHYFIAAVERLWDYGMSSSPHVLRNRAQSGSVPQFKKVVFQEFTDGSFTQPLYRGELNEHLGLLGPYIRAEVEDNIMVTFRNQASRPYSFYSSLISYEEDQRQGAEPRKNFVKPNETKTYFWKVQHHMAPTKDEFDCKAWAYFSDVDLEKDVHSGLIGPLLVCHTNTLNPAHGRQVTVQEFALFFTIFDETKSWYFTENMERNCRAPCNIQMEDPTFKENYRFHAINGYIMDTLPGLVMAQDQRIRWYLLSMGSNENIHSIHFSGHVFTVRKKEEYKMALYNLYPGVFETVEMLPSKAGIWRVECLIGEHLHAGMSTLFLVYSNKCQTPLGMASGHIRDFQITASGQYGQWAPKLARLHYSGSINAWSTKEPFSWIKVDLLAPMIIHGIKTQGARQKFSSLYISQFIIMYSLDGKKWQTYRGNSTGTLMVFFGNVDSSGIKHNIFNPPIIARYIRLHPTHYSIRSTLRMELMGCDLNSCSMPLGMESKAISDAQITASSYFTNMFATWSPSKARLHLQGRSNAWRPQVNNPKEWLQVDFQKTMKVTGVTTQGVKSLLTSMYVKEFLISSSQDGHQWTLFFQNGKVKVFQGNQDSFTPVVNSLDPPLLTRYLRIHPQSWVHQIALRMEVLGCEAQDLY
The experiment in a line: SPR (Biacore T200), D′D3-FP captured on anti-albumin antibody, rVIII-SingleChain as analyte, single cycle kinetics, 25° C. Here is the method: (§1) An anti-albumin antibody (MA1-20124, Thermo Scientific) was covalently coupled via its N-terminus to an activated CM 3 chip by NHS (N-Hydroxysuccinimide) and EDC […], both contained in the amine coupling kit (BR1000-50) from GE Healthcare. For immobilization 3 μg/mL of the antibody were diluted in sodium acetate buffer (10 mM, pH 5.0) and the antibody solution was flown over the chip for 7 min. at a flow rate of 10 μL/min. After the immobilization procedure non-coupled dextran filaments were saturated by flowing ethanolamine solution (1 M, pH 8.3) over the chip for 5 min (at a flow rate of 10 μL/min). The aim of saturating the flow cell was to minimize unspecific binding of the analytes to the chip. A reference flow cell was set up by saturating an empty flow cell with ethanolamine by using the same procedure as above.
(§2) Dimeric and monomeric D′D3-FP proteins, respectively, were immobilized to the covalently coupled anti-albumin antibody by a flow of the D′D3-FP proteins (5 μg/mL) over the chip for 3 min (flow rate of 10 μL/min).
(§3) To create binding curves for FVIII, each D′D3-FP protein preparation was diluted in running buffer (HBS-P+: 0.1 M HEPES, 1.5 M NaCl and 0.5% v/v Surfactant P20, pH 7.4; product code BR100671, GE Healthcare) to concentrations of 0.25 nM, 0.5 nM, 1 nM, 3 nM and 4 nM. […]
(SPR reads the build-up and loss of mass on a sensor chip optically.)

Experiment [2] concerns the target T1, rVIII-SingleChain (single chain Factor …). The experiment in a line: SPR (Biacore T200), D′D3-FP captured on anti-albumin antibody, rVIII-SingleChain as analyte, single cycle kinetics, 25° C.; D′D3-FP monomer preparation. The procedure:
as §1, §2, §3

Usually koff stands for a measure of how fast the partners let go of each other. Usually kon stands for the rate constant with which the complex forms. A lower kon goes with slower complex formation. The term Kd denotes the concentration at which binding is half-saturated. Lower therefore signals tighter binding.

B1: D′D3 albumin fusion protein (D′D3-FP), monomer (other)
chain: SLSCRPPMVKLVCPADNLRAEGLECTKTCQNYDLECMSMGCVSGCLCPPGMVRHENRCVALERCPCFHQGKEYAPGETVKIGCNTCVCRDRKWNCTDHVCDATCSTIGMAHYLTFDGLKYLFPGECQYVLVQDYCGSNPGTFRILVGNKGCSHPSVKCKKRVTILVEGGEIELFDGEVNVKRPMKDETHFEVVESGRYIILLLGKALSVVWDRHLSISVVLKQTYQEKVCGLCGNFDGIQNNDLTSSNLQVEEDPVDFGNSWKVSSQCADTRKVPLDSSPATCHNNIMKQTMVDSSCRILTSDVFQDCNKLVDPEPYLDVCIYDTCSCESIGDCACFCDTIAAYAHVCAQHGKVVTWRTATLCPQSCEERNLRENGYECEWRYNSCAPACQVTCQHPEPLACPVQCVEGCHAHCPPGKILDELLQTCVDPEDCPVCEVAGRRFASGKKVTLNPSDPEHCQICHCDVVNLTCEACQEPGGSSGGSGGSGGSGGSGGSGGSGGSGGSGGSGS[here about 600 residues without letters]
modifications: N-glycosylated, sialylated glycoprotein from CHO cells. This is the monomer fraction from size exclusion chromatography.
notes: This is the monomer fraction isolated by size exclusion chromatography; In the SPR assay it was captured on an anti-albumin antibody; also called monomeric D′D3-FP
In experiment [1], B1 yielded a koff of 0.03 s⁻¹ and a kon of 990000 M⁻¹ s⁻¹. The Kd in experiment [2] came out at 30 nM.
